From the BET-seq Pho4 binding data (Le et al. 2018) come the findings set out here.

The list shows a part of the results. The energies were worked out here from pooled read counts, against the library average; single values are noisy.

For this assay, the target named is T1, Pho4 (S. cerevisiae) (UniProt P07270).
T1 sequence: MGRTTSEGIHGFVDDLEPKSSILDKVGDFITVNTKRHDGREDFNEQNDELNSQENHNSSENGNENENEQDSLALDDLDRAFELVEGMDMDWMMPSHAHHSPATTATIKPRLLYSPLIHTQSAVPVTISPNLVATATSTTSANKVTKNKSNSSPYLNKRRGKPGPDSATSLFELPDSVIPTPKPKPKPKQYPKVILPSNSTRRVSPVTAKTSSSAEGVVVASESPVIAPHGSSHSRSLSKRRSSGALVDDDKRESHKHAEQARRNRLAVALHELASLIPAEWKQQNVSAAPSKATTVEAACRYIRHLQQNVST
Put plainly: relative binding free energy (BET-seq); higher = weaker binding. The note with it: reference: library average.
On to AAGGTCACGTGGAGTT, for which the “relative binding free energy” value is 0.2 kcal/mol.
CGTTTCACGTGTAGTA: the “relative binding free energy” value stood at 0.27 kcal/mol.
For GAGTGCACGTGAGGGT the value was 0.3 kcal/mol; for GATGTCACGTGGTGTA, 0.12 kcal/mol; for TGGTACACGTGTCGGC, 0.14 kcal/mol.
To TGGTACACGTGAATGG belongs 0.11 kcal/mol; to GATGTCACGTGCTGCT, 0.14 kcal/mol; to AAGTGCACGTGGGCTG, -0.14 kcal/mol.
To AGTGTCACGTGCGAGA belongs 0.02 kcal/mol.
For GGGGCCACGTGTGGGG, the “relative binding free energy” value was determined as 0.05 kcal/mol.
As for TTGAGCACGTGTGGCT, the “relative binding free energy” value was -0.12 kcal/mol.
CTAGGCACGTGGGGGC: the “relative binding free energy” value is -0.2 kcal/mol.
To TGGGGCACGTGATTAA belongs -0.06 kcal/mol.
With GCAGTCACGTGTGGGA, the “relative binding free energy” value was 0.12 kcal/mol.
For GGTGGCACGTGAATAG the value was 0.12 kcal/mol; for GTTGGCACGTGAGGTC, 0.29 kcal/mol; for CGTTGCACGTGGTTGC, -0.15 kcal/mol.
For ACTGGCACGTGGAAGG, the “relative binding free energy” value was -0.05 kcal/mol.
To CGGTGCACGTGATTGC belongs 0.05 kcal/mol; to CTTTTCACGTGTTGGA, 0.18 kcal/mol; to TAAGACACGTGGGGCG, -0.2 kcal/mol.
For GTCGGCACGTGGTGGT the value was -0.09 kcal/mol.
To TGGACCACGTGTGGTA belongs 0.03 kcal/mol.
In the case of CTGTTCACGTGCGGGA, the “relative binding free energy” value is 0.25 kcal/mol.
To ATGTGCACGTGTGCTG belongs -0.04 kcal/mol; to CGAGTCACGTGTCGTG, 0.17 kcal/mol; to GATGACACGTGTGGTT, 0.24 kcal/mol.
For ATGAGCACGTGTGTCT the value was -0.06 kcal/mol.
For AATGCCACGTGTGTGT the value was -0.04 kcal/mol.
Regarding GGGGGCACGTGCAGGG, the “relative binding free energy” value is -0.15 kcal/mol.
With TCGTACACGTGTGGGA, the “relative binding free energy” value amounted to 0.09 kcal/mol.
For AATCTCACGTGTATGT the value was 0.13 kcal/mol; for TGTGCCACGTGCAGTG, -0.07 kcal/mol; for AGGGACACGTGTATGG, 0.14 kcal/mol.
As for TTTTACACGTGCAATG, the “relative binding free energy” value turned out to be 0.15 kcal/mol.
To AGAGTCACGTGTGTTT belongs 0.23 kcal/mol; to AGCCTCACGTGAGGTG, 0.37 kcal/mol.
For TTTTTCACGTGATGTG the value was 0.35 kcal/mol.
To TTGTTCACGTGAAGTA belongs 0.47 kcal/mol.
Take AAATACACGTGGGGAG: the “relative binding free energy” value was -0.05 kcal/mol.
For the sequence TTGGTCACGTGGGCAT, the “relative binding free energy” value is 0.11 kcal/mol.
For CAATTCACGTGGTTTA the value was 0.24 kcal/mol.
To CTGTTCACGTGGATTT belongs 0.36 kcal/mol; to GGTTACACGTGAACGG, 0.31 kcal/mol; to ATGTGCACGTGTAATA, -0.11 kcal/mol.
To GCTTTCACGTGTGAGT belongs 0.34 kcal/mol.
For the sequence TGAGACACGTGGTGGT, the “relative binding free energy” value came to 0.01 kcal/mol.
To CGGTGCACGTGTGATG belongs -0.04 kcal/mol; to AATAACACGTGATGGG, 0.2 kcal/mol; to TGAATCACGTGTTCTT, 0.19 kcal/mol.
To ATGTACACGTGGGAGA belongs -0.1 kcal/mol.
For GATAGCACGTGAGGGA the value was 0.33 kcal/mol; for GGATGCACGTGGGTTA, -0.06 kcal/mol.
As to GGTGGCACGTGTTGGA, the “relative binding free energy” value worked out at 0.11 kcal/mol.
TATCTCACGTGGATTT: the “relative binding free energy” value turned out to be 0.4 kcal/mol.
As for CTGTACACGTGATGGT, the “relative binding free energy” value was determined as 0.15 kcal/mol.
To GGTCACACGTGGTATA belongs 0.03 kcal/mol.
Take TTATGCACGTGGCTGG: the “relative binding free energy” value was -0.18 kcal/mol.
As for TTGGTCACGTGAGCTC, the “relative binding free energy” value was determined as 0.33 kcal/mol.
As to TGTTGCACGTGAGCGA, the “relative binding free energy” value is 0.14 kcal/mol.
Take GTTGGCACGTGATTTT: the “relative binding free energy” value came to 0.13 kcal/mol.
For GAAGGCACGTGGGAGG the value was -0.26 kcal/mol.
Consider GGGGTCACGTGTAAAA, for which the “relative binding free energy” value turned out to be 0.24 kcal/mol.
For GACGGCACGTGTGTAT, the “relative binding free energy” value came out at 0.03 kcal/mol.
To ATTTGCACGTGCAGGG belongs -0.02 kcal/mol.
For TGATTCACGTGAAGGA the value was 0.42 kcal/mol.
Regarding ATAGGCACGTGGTGCT, the “relative binding free energy” value was -0.18 kcal/mol.
For GTTATCACGTGTAAAG, the “relative binding free energy” value worked out at 0.29 kcal/mol.
As for TTTTTCACGTGATTGC, the “relative binding free energy” value turned out to be 0.42 kcal/mol.
For the sequence GATTGCACGTGTGGAT, the “relative binding free energy” value came out at 0.25 kcal/mol.
To ATGGTCACGTGTCGGC belongs 0.1 kcal/mol.
For TCGGGCACGTGTTCTG the value was -0.06 kcal/mol.
For CGGGGCACGTGGAGTT the value was -0.12 kcal/mol; for GGATTCACGTGCTATT, 0.24 kcal/mol; for GGATTCACGTGGATGC, 0.49 kcal/mol.
As for TTGAACACGTGTCGGT, the “relative binding free energy” value was found to be 0.08 kcal/mol.
Regarding GGACGCACGTGGGGGT, the “relative binding free energy” value is -0.22 kcal/mol.
In the case of CATTTCACGTGGTAAG, the “relative binding free energy” value worked out at 0.21 kcal/mol.
For the sequence AGGGACACGTGAGTTG, the “relative binding free energy” value turned out to be 0.37 kcal/mol.
To GAGTCCACGTGGGTAT belongs -0.04 kcal/mol; to CTTTACACGTGTTGGT, 0.12 kcal/mol.
To CTTGGCACGTGGGTTG belongs -0.3 kcal/mol; to TGAGACACGTGAAGTG, 0.24 kcal/mol.
For TCAATCACGTGTAGGT the value was 0.07 kcal/mol.
As for GGGGGCACGTGAGAAC, the “relative binding free energy” value stood at 0.12 kcal/mol.
For GATTTCACGTGGGAAT the value was 0.38 kcal/mol; for AGACACACGTGTTGTG, 0.03 kcal/mol; for TAATGCACGTGGCGAG, -0.09 kcal/mol.
To GAGCGCACGTGTTATG belongs 0.08 kcal/mol; to CAGTTCACGTGGTCGG, 0.19 kcal/mol.
For the sequence AGTTACACGTGCTGAT, the “relative binding free energy” value was determined as 0.05 kcal/mol.
In the case of TGATGCACGTGCTGGA, the “relative binding free energy” value turned out to be 0.04 kcal/mol.
For TAGCTCACGTGGTTTA, the “relative binding free energy” value stood at 0.15 kcal/mol.
To CGAAGCACGTGTTAGG belongs -0.03 kcal/mol.
AGTTTCACGTGTTAAA: the “relative binding free energy” value is 0.11 kcal/mol.
In the case of CAGGTCACGTGTTGTT, the “relative binding free energy” value turned out to be 0.14 kcal/mol.
To ATAATCACGTGGTATG belongs 0.12 kcal/mol; to TTGCACACGTGGGGTC, -0.13 kcal/mol; to TGCGTCACGTGGAAAG, 0.2 kcal/mol.
Turning to AACTGCACGTGTGGTA, the “relative binding free energy” value stood at 0.03 kcal/mol.
Take CTTTTCACGTGTAATT: the “relative binding free energy” value turned out to be 0.22 kcal/mol.
On to GGATGCACGTGAGCGC, for which the “relative binding free energy” value was found to be 0.36 kcal/mol.
As to ATTGGCACGTGTATCT, the “relative binding free energy” value was 0.01 kcal/mol.
For the sequence TGATTCACGTGGGAAG, the “relative binding free energy” value is 0.19 kcal/mol.
As to GTAGTCACGTGTCGAG, the “relative binding free energy” value amounted to 0.32 kcal/mol.
To TAAGTCACGTGGGCGT belongs 0.1 kcal/mol; to CATTGCACGTGTATTT, 0.02 kcal/mol.
TATGGCACGTGAGGTC: the “relative binding free energy” value is 0.18 kcal/mol.
To GTCAACACGTGAGGGT belongs 0.17 kcal/mol; to TCACGCACGTGTTGTT, -0.03 kcal/mol.
Regarding CTGGACACGTGGTGGT, the “relative binding free energy” value was 0.01 kcal/mol.
For GGTGACACGTGGCGTG the value was -0.09 kcal/mol; for ATTGTCACGTGGATTC, 0.15 kcal/mol; for GTTGTCACGTGTTCGT, 0.2 kcal/mol.
For TTAAGCACGTGGGGTG the value was -0.24 kcal/mol.
